The list shows a part of the results. The list includes weakly bound sequences.
These sequences were tested against T1, MBP-FoxP3dN (UniProt Q99JB6) (assay: PD-seq (MBP pull-down with sequencing)). Settings: 20 mM Tris-HCl pH 7.5, 100 mM NaCl, 1.5 mM MgCl2, 0.4 uM protein, 0.1 uM dsDNA library, 30 min, room temperature, amylose pull-down; high values mean tight binding; double strand, one strand shown.
T1 sequence: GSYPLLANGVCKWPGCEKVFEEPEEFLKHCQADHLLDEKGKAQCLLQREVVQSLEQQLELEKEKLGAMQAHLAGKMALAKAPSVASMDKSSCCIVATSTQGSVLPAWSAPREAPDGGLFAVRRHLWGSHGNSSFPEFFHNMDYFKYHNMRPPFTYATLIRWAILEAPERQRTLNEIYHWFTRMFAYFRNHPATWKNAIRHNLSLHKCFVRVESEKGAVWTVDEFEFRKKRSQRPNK

Sequence	binding signal (RPM ratio (pull-down/input))
GATGATTGTTCTCCCAGCTGATGAATTTGGTGGATCGAGTAAACAAATTTTCCTAATCTTTCTGTTCAAGCGCCATCTAC	0.677
GATGATTGTTCTCCCAGCTGATGAATTAATTCTGTCGAGTAAACAAATTTTCCTAATCTTTCTGTTCAAGCGCCATCTAC	0.249
GATGATTGTTCTCCCAGCTGATGAATTAAGACATTCGAGTAAACAAATTTTCCTAATCTTTCTGTTCAAGCGCCATCTAC	0.913
GATGATTGTTCTCCCAGCTGATGAATTTTGCCCATCGAGTAAACAAATTTTCCTAATCTTTCTGTTCAAGCGCCATCTAC	1.68
GATGATTGTTCTCCCAGCTGATGAATTGCCTTCATCGAGTAAACAAATTTTCCTAATCTTTCTGTTCAAGCGCCATCTAC	1.05
GATGATTGTTCTCCCAGCTGATGAATTCGCAATCTCGAGTAAACAAATTTTCCTAATCTTTCTGTTCAAGCGCCATCTAC	1.71
GATGATTGTTCTCCCAGCTGATGAATTTCCCTCATCGAGTAAACAAATTTTCCTAATCTTTCTGTTCAAGCGCCATCTAC	0.354
GATGATTGTTCTCCCAGCTGATGAATTGAGACTGTCGAGTAAACAAATTTTCCTAATCTTTCTGTTCAAGCGCCATCTAC	0.721
GATGATTGTTCTCCCAGCTGATGAATTCGAGCTTTCGAGTAAACAAATTTTCCTAATCTTTCTGTTCAAGCGCCATCTAC	0.783
GATGATTGTTCTCCCAGCTGATGAATTTATGGAATCGAGTAAACAAATTTTCCTAATCTTTCTGTTCAAGCGCCATCTAC	0.376
GATGATTGTTCTCCCAGCTGATGAATTCCAGCCCTCGAGTAAACAAATTTTCCTAATCTTTCTGTTCAAGCGCCATCTAC	0.367
GATGATTGTTCTCCCAGCTGATGAATTCGAAATGTCGAGTAAACAAATTTTCCTAATCTTTCTGTTCAAGCGCCATCTAC	0.334
GATGATTGTTCTCCCAGCTGATGAATTAACATCTTCGAGTAAACAAATTTTCCTAATCTTTCTGTTCAAGCGCCATCTAC	0.526
GATGATTGTTCTCCCAGCTGATGAATTACCCACGTCGAGTAAACAAATTTTCCTAATCTTTCTGTTCAAGCGCCATCTAC	0.301
GATGATTGTTCTCCCAGCTGATGAATTAGCGGCCTCGAGTAAACAAATTTTCCTAATCTTTCTGTTCAAGCGCCATCTAC	0.488
GATGATTGTTCTCCCAGCTGATGAATTCTGAGTGTCGAGTAAACAAATTTTCCTAATCTTTCTGTTCAAGCGCCATCTAC	1.59
GATGATTGTTCTCCCAGCTGATGAATTCGTTAGCTCGAGTAAACAAATTTTCCTAATCTTTCTGTTCAAGCGCCATCTAC	1.35
GATGATTGTTCTCCCAGCTGATGAATTAGTTCCGTCGAGTAAACAAATTTTCCTAATCTTTCTGTTCAAGCGCCATCTAC	0.36
GATGATTGTTCTCCCAGCTGATGAATTAATCGGGTCGAGTAAACAAATTTTCCTAATCTTTCTGTTCAAGCGCCATCTAC	0.275
GATGATTGTTCTCCCAGCTGATGAATTCAATCGGTCGAGTAAACAAATTTTCCTAATCTTTCTGTTCAAGCGCCATCTAC	0.287

Sequence	binding signal (RPM ratio (pull-down/input))
GATGATTGTTCTCCCAGCTGATGAATTAGGATAATCGAGTAAACAAATTTTCCTAATCTTTCTGTTCAAGCGCCATCTAC	0.341
GATGATTGTTCTCCCAGCTGATGAATTTCGTTATTCGAGTAAACAAATTTTCCTAATCTTTCTGTTCAAGCGCCATCTAC	2.7
GATGATTGTTCTCCCAGCTGATGAATTAACGCTATCGAGTAAACAAATTTTCCTAATCTTTCTGTTCAAGCGCCATCTAC	0.812
GATGATTGTTCTCCCAGCTGATGAATTTTACTTATCGAGTAAACAAATTTTCCTAATCTTTCTGTTCAAGCGCCATCTAC	1.37
GATGATTGTTCTCCCAGCTGATGAATTTAATAACTCGAGTAAACAAATTTTCCTAATCTTTCTGTTCAAGCGCCATCTAC	0.478
GATGATTGTTCTCCCAGCTGATGAATTTAAGATCTCGAGTAAACAAATTTTCCTAATCTTTCTGTTCAAGCGCCATCTAC	0.306
GATGATTGTTCTCCCAGCTGATGAATTCTACAAGTCGAGTAAACAAATTTTCCTAATCTTTCTGTTCAAGCGCCATCTAC	0.249
GATGATTGTTCTCCCAGCTGATGAATTAGTGCTGTCGAGTAAACAAATTTTCCTAATCTTTCTGTTCAAGCGCCATCTAC	0.874
GATGATTGTTCTCCCAGCTGATGAATTAAAACCATCGAGTAAACAAATTTTCCTAATCTTTCTGTTCAAGCGCCATCTAC	0.316
GATGATTGTTCTCCCAGCTGATGAATTTATCTTTTCGAGTAAACAAATTTTCCTAATCTTTCTGTTCAAGCGCCATCTAC	0.528
GATGATTGTTCTCCCAGCTGATGAATTACCTATCTCGAGTAAACAAATTTTCCTAATCTTTCTGTTCAAGCGCCATCTAC	0.386
GATGATTGTTCTCCCAGCTGATGAATTCGGTACGTCGAGTAAACAAATTTTCCTAATCTTTCTGTTCAAGCGCCATCTAC	0.515
GATGATTGTTCTCCCAGCTGATGAATTTGTCGCGTCGAGTAAACAAATTTTCCTAATCTTTCTGTTCAAGCGCCATCTAC	3.09
GATGATTGTTCTCCCAGCTGATGAATTTAGAAGTTCGAGTAAACAAATTTTCCTAATCTTTCTGTTCAAGCGCCATCTAC	0.345
GATGATTGTTCTCCCAGCTGATGAATTCCTTTGATCGAGTAAACAAATTTTCCTAATCTTTCTGTTCAAGCGCCATCTAC	0.255
GATGATTGTTCTCCCAGCTGATGAATTGTTGCAGTCGAGTAAACAAATTTTCCTAATCTTTCTGTTCAAGCGCCATCTAC	2.79
GATGATTGTTCTCCCAGCTGATGAATTTTTTTTATCGAGTAAACAAATTTTCCTAATCTTTCTGTTCAAGCGCCATCTAC	0.295
GATGATTGTTCTCCCAGCTGATGAATTGCTGGACTCGAGTAAACAAATTTTCCTAATCTTTCTGTTCAAGCGCCATCTAC	0.392
GATGATTGTTCTCCCAGCTGATGAATTACTGAGATCGAGTAAACAAATTTTCCTAATCTTTCTGTTCAAGCGCCATCTAC	0.271
GATGATTGTTCTCCCAGCTGATGAATTGCATGTTTCGAGTAAACAAATTTTCCTAATCTTTCTGTTCAAGCGCCATCTAC	2.47

— paper PMC12820563
